The values below come from the supplement of paper PMC10600219.

Where a name gives a salt, the structure may show the parent alone. Whole data set: some 2,800 compounds, median “cell viability relative to vehicle” near 1.1, cut for the lowest 2% near 0.19. The list shows a part of the results.

For this test, the system named is NCI-H2228 parental. In words: cell viability relative to vehicle (fraction of vehicle); NCI-H2228 is an ALK-positive lung cancer line and DTP means drug-tolerant persister; higher = less growth inhibition. Particulars: 100 nM; treatment time 6 days. The method in brief: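 Parental NCI-H2228 cells and drug-tolerant persister cells (made with 1000 nM of a targeted drug for 13 days) were seeded in 384-well plates. The next day, the 3114-agent TargetMol anti-cancer compound library was added at 100 nM, with DMSO as vehicle. After 6 days, ATP was read with the CellTiter-Glo 3D Cell Viability Assay. Each value is cell viability relative to vehicle-treated cells.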
With `O=C(Nc1ccc(Cl)cc1)C1CCCN(C(=O)c2cccc(-c3ccco3)c2)C1` (centres undefined), the cell viability amounted to 1.08.

`CC(=O)Nc1ccc(NC(=S)NC(=O)c2ccc(C(C)(C)C)cc2)cc1` [Tenovin-1]: the cell viability worked out at 1.05.

As for `O=C(NOCCO)c1ccc2cncn2c1Nc1ccc(I)cc1F`, the cell viability amounted to 0.979.

Regarding `CCOc1cc(C(=O)N2CCC(N3CCN(C)CC3)CC2)ccc1Nc1ncc2c(n1)N(C1CCCC1)c1ccccc1C(=O)N2C`, the cell viability was determined as 1.23.

As for `O=c1cc(-c2ccc(O)c(O)c2)oc2cc(O)cc(O)c12` [Luteolin], the cell viability was determined as 1.2.

For the molecule `Nc1ncn([C@H]2C[C@H](O)[C@@H](CO)O2)c(=O)n1` [Decitabine], the cell viability was 0.65.

Take `O=C(Cc1ccc(-c2ccc(OCCN3CCOCC3)cc2)cn1)NCc1ccccc1`: the cell viability was 0.329.

As for `Cc1cc(Nc2ccc(NC(=O)c3ccc(Nc4ccnc5ccccc45)cc3)cc2)nc(N)n1`, the cell viability stood at 1.1.

Take `CCCC(=O)O` [Butyric  acid]: the cell viability was found to be 1.08.

As to `C[C@]12CC[C@@H]3c4ccc(O)cc4CC[C@H]3[C@@H]1CC[C@@H]2OC(=O)CCC1CCCC1` [Depofemin], the cell viability was found to be 1.05.

With `C[C@H](NC(=O)[C@@H](O)c1cc(F)cc(F)c1)C(=O)N[C@@H]1C(=O)N(C)c2ccccc2-c2ccccc21`, the cell viability is 0.853.

`CN1CCN(c2ccc(-c3ccncc3-c3cc(F)c(O)c(F)c3)cc2)CC1`: the cell viability was found to be 1.09.

With `O=c1cc(N2CCOCC2)oc2c1ccc1ccccc12`, the cell viability worked out at 0.97.

Regarding `CCOC(=O)C(C)(C)Oc1ccc(Cl)cc1` [Clofibrate], the cell viability is 1.14.

On to `CN1CCC(=C2c3ccccc3CC(=O)c3sccc32)CC1` [Ketotifen fumarate], for which the cell viability stood at 1.1.

On to `COc1ccccc1N1CCN(CC(O)COc2cccc3ccccc23)CC1` (centres undefined) [Naftopidil], for which the cell viability amounted to 1.13.

As for `CC[C@H](CC[C@@H](C)[C@H]1CC[C@H]2[C@@H]3CC=C4C[C@@H](O)CC[C@]4(C)[C@H]3CC[C@]12C)C(C)C` [Beta-Sitosterol], the cell viability was determined as 1.14.

Regarding `O=C(O)CC[C@H]1CC[C@@](c2cc(F)ccc2F)(S(=O)(=O)c2ccc(Cl)cc2)CC1`, the cell viability amounted to 1.06.

With `C/C=C1\NC(=O)[C@H]2CSSCC/C=C/[C@H](CC(=O)N[C@H](C(C)C)C(=O)N2)OC(=O)[C@H](C(C)C)NC1=O` [Romidepsin], the cell viability turned out to be 0.0515.

In the case of `CCCN(CCC)C(=O)C(CCC(=O)O)NC(=O)c1ccccc1` (centres undefined) [Proglumide], the cell viability came out at 1.07.

On to `COc1cc(OC)c(C(=O)CCCN2CCCC2)c(OC)c1` [Buflomedil hydrochloride], for which the cell viability was determined as 0.975.

As for `CC(=O)NCCc1c[nH]c2ccc(O)cc12` [N-Acetyl-5-hydroxytryptamine], the cell viability was found to be 0.888.

Turning to `CC1(C)CC(=O)C2=C(C1)NC(=S)NC2c1cccc(O)c1` (centres undefined) [Dimethylenastron], the cell viability worked out at 1.08.

Turning to `O.O.O.O.O=C([O-])CC(O)(CC(=O)[O-])C(=O)[O-].[Li+].[Li+].[Li+]` [Lithium citrate tribasic tetrahydrate], the cell viability stood at 0.981.

For the molecule `O=c1ccc2ccc(O)c(O)c2o1` [Daphnetin], the cell viability amounted to 1.08.

As for `OCC1=C[C@@H](O)[C@@H]2C=CO[C@@H](O[C@@H]3O[C@H](CO)[C@@H](O)[C@H](O)[C@H]3O)[C@H]12` [Aucubin], the cell viability stood at 1.14.

On to `CC(C)(C)C(=O)OCOP(=O)(COCCn1cnc2c(N)ncnc21)OCOC(=O)C(C)(C)C` [Adefovir dipivoxil], for which the cell viability was found to be 1.11.

Consider `COc1ccc(CCNCc2ccc(OCc3ccc(Cl)nc3)c(OC)c2)cc1OC` [SBE 13 hydrochloride], for which the cell viability was found to be 1.11.

Turning to `Cn1c(=O)cnn(CCCCN2CCN(c3ncccn3)CC2)c1=O` [Eptapirone], the cell viability amounted to 1.04.

In the case of `O=S(=O)(c1cccc2c(I)cccc12)N1CCCNCC1` [ML-7 hydrochloride], the cell viability was 0.984.

Consider `C[C@@H]([C@H](C)O)[C@H](N)C(=O)O` [(4S)-4-Hydroxy-L-isoleucine], for which the cell viability was found to be 1.

`O=C(Nc1ccc(O)cc1)c1ccccc1O` [Osalmid]: the cell viability amounted to 1.11.

For `C=CC(=O)Nc1cccc(Nc2nc(Nc3ccc(N4CCN(C(C)=O)CC4)cc3OC)ncc2C(F)(F)F)c1` [Rociletinib], the cell viability came to 1.07.

Regarding `CS(=O)(=O)CCNCc1ccc(-c2ccc3ncnc(Nc4ccc(OCc5cccc(F)c5)c(Cl)c4)c3c2)o1` [Lapatinib Ditosylate], the cell viability turned out to be 1.15.

With `CS(=O)(=O)CCNCc1ccc(-c2ccc3ncnc(Nc4ccc(OCc5cccc(F)c5)c(Cl)c4)c3c2)o1` [Lapatinib], the cell viability turned out to be 1.09.

With `Nc1c(Br)cc(Br)cc1CN[C@H]1CC[C@H](O)CC1` [Ambroxol], the cell viability came out at 0.975.

Consider `COC(=O)c1sccc1S(=O)(=O)Nc1ccc(Nc2ccccc2)cc1OC`, for which the cell viability turned out to be 1.02.

In the case of `Cc1cccc(-c2[nH]ncc2-c2ccnc3ccccc23)n1`, the cell viability was found to be 1.18.

Turning to `CC(C)(Sc1cc(C(C)(C)C)c(O)c(C(C)(C)C)c1)Sc1cc(C(C)(C)C)c(O)c(C(C)(C)C)c1` [Probucol], the cell viability amounted to 0.949.

On to `CCOc1ccc2c(-c3cccc(F)c3)nn(CC(=O)N(C)c3ccc4nc(C)oc4c3)c(=O)c2c1`, for which the cell viability stood at 0.997.

For the molecule `O=c1cc(N2CCNCC2)oc2c(-c3ccccc3)cccc12`, the cell viability turned out to be 0.836.

`COc1cc2ncc(-c3ccccc3)nc2cc1OC` [Tyrphostin AG 1296]: the cell viability came to 1.07.

On to `Nc1ccc(Cl)cc1C(=O)O` [2-Amino-5-chlorobenzoic acid], for which the cell viability stood at 1.16.

On to `CCC[C@H](Nc1nc(-c2ccc(NC(=O)NCC)c(OC)c2)ncc1C)c1cccnc1` [Lexibulin], for which the cell viability was 0.337.

On to `COc1cc2ncnc(Nc3ccc(Oc4ccccc4)cc3C)c2cc1OC`, for which the cell viability was 0.96.

With `COc1ccc(C(=O)Nc2sc3c(c2C(N)=O)CCCC3)cc1OC`, the cell viability turned out to be 1.02.

Regarding `O=C(O)CCC(=O)Nc1ccc(Br)cn1` [Bikinin], the cell viability was found to be 1.15.

For the molecule `CC(=O)N[C@@H](CCC(N)=O)C(=O)O` [Aceglutamide], the cell viability was determined as 0.87.

`N[C@@H](Cn1ccc(=O)c(O)c1)C(=O)O` [L-Mimosine]: the cell viability stood at 1.07.

Take `CC(=O)NO` [Acetohydroxamic acid]: the cell viability turned out to be 1.

Turning to `COc1cc(Nc2ncc(F)c(Nc3ccc4c(n3)NC(=O)C(C)(C)O4)n2)cc(OC)c1OC` [R406 free base], the cell viability came out at 0.721.

On to `COc1cc(Nc2ncc(F)c(Nc3ccc4c(n3)NC(=O)C(C)(C)O4)n2)cc(OC)c1OC`, for which the cell viability is 0.974.

For the molecule `CC(C)(Oc1ccc(Cl)cc1)C(=O)O` [Clofibric acid], the cell viability amounted to 1.14.

In the case of `Cc1ccc(NC(=O)c2ccc(CN3CC[C@H](N(C)C)C3)c(C(F)(F)F)c2)cc1Nc1nccc(-c2cncnc2)n1` [Bafetinib], the cell viability is 1.12.
